Assay results reported in paper PMC7395068, “The evolution of strategies to minimise the risk of human drug-induced liver injury (DILI) in drug discovery and development” (Archives of Toxicology, 2020).
Like-named read-outs stand apart in the source and are kept apart here.

Tests used:
PHH spheroids = conditions: cited from earlier work; for hLiMTs ATP <20 x Cmax: In vitro Assay, ref Vorrink 2018
rBsep = conditions: In vitro Assay; ref Dawson 2012; cited from earlier work
[1] = system: isolated mouse liver mitochondria; conditions: In vitro Assay; ref Porceddu 2012; cited from earlier work
hLiMTs [2] = assay: Combined HCI (HCS) and cellular ATP 3D assay in hLiMTs
[3] = ref Chen 2011; cited from earlier work
HepG2 cells [4] = conditions: Structural based (HCI), ref O'Brien et al. 2006; cited from earlier work
HepaRG spheroids = assay: Combined HCI (HCS) and cellular ATP 3D assay in HepaRG spheroids
[5] = system: primary human hepatocytes, NIH3T3 fibroblasts, BSEP, CYP3A4; conditions: cited from earlier work
[6] = Plasma free fraction (fu) and unbound Cmax (Cmax,u); assay type: in vitro ADME, human; conditions: unbound plasma Cmax
[7] = system: HepG2 cells, primary human hepatocytes; conditions: In vitro Assay; ref Garside 2014; cited from earlier work
human hepatocytes = conditions: cited from earlier work
[8] = cited from earlier work
[9] = plasma free fraction; cited from earlier work
PHH = conditions: 2D PHH, ATP, IC50 < 100 × Cmax.tot; ref Proctor et al. 2017; cited from earlier work
hLiMTs [10] = conditions: ATP, IC50 < 100 × Cmax.tot, ref Proctor et al. 2017; cited from earlier work
[11] = read-out: Human plasma Cmax; total plasma Cmax.tot, median of 9 literature references; cited from earlier work
[12] = system: THLE or HepG2 cells, isolated mitochondria, BSEP; conditions: Modeled in vitro assays (cytotoxicity, mitochondrial dysfunction, BSEP); ref Aleo et al. 2019; cited from earlier work
Upcyte human hepatocytes = conditions: In vitro Assay; ref Tolosa 2019; cited from earlier work
[13] = system: THLE-Null and THLE-3A4 cells; conditions: In vitro Assay; ref Gustafsson 2014; cited from earlier work
HepG2 cells [14] = conditions: Structural based (HCI), ref Tolosa et al. 2012; cited from earlier work
[15] = system: HepG2 C3A spheroid, BSEP, Glu/Gal in HepG2 cells, bioactivation; conditions: cited from earlier work
HepG2 cells [16] = conditions: Structural based (HCI), ref Persson et al. 2013; cited from earlier work
[17] = cited from earlier work; remark: listed apart in the source
[18] = Microtissue model structural based (HCI), combined HCS and ATP, MEC < 25 × Cmax.tot cut-off
[19] = In vitro Assay, ref Schadt 2015

NS(=O)(=O)c1cc(C(=O)O)c(NCc2ccco2)cc1Cl [furosemide, reference compound]
hLiMTs ATP <20 x Cmax (PHH spheroids): -VE | Inhibition of rBsep cutoff<1& cmax u>.2 (rBsep): -VE | Inhibition of rBsep cutoff<3 (rBsep): -VE

CCCCc1oc2ccccc2c1C(=O)c1cc(I)c(OCCN(CC)CC)c(I)c1 [amiodarone, reference compound]
in vitro data EC2<=1x Cmax [1]: +VE | hLiMTs ATP <20 x Cmax (PHH spheroids): +VE (IC20 < 20 × Cmax.tot cut-off) | DILI in vitro assay prediction, Vorrink (2018) (PHH spheroids; PHH spheroids, ATP, 14 days, IC20 < 20 × Cmax.tot, ref Vorrink et al. 2018): +VE (IC20 < 20 × Cmax.tot cut-off) | DILI prediction hLiMTs (HCS-MEC) (hLiMTs [2]; [18]): +VE (MEC < 25 × Cmax.tot cut-off) | hLiMTs <25x Avg Cmax ATP (hLiMTs [2]; hLiMTs, ATP endpoint, cut-off <25x Avg Cmax): +ve | hLiMTs <100x Avg Cmaxu ATP (hLiMTs [2]; hLiMTs, ATP endpoint, cut-off <100x Avg Cmaxu): +ve (<100x Avg Cmaxu) | hLiMTs <25x Avg Cmax HCS (hLiMTs [2]; hLiMTs, HCS endpoints, cut-off <25x Avg Cmax): +ve | hLiMTs <100x Avg Cmaxu HCS (hLiMTs [2]; hLiMTs, HCS endpoints, cut-off <100x Avg Cmaxu): +ve (<100x Avg Cmaxu) | hLiMTs <25x Avg Cmax All (hLiMTs [2]; hLiMTs, all endpoints (ATP and HCS), cut-off <25x Avg Cmax): +ve | hLiMTs Cmax max All (hLiMTs [2]; hLiMTs, all endpoints, Cmax max used): +ve | hLiMTs Cmax min All (hLiMTs [2]; hLiMTs, all endpoints, Cmax min used): +ve | hLiMTs <100x Avg Cmaxu All (hLiMTs [2]; hLiMTs, all endpoints, cut-off <100x Avg Cmaxu): +ve (<100x Avg Cmaxu) | DILI Score (FDA) (1-8) [3]: 8 | DILI in vitro assay prediction, O'Brien (2006) (HepG2 cells [4]): +VE (lowest HCI endpoint IC50 (or in the absence of dose–response < 100 µM) < 30 × total human plasma exposure levels (Cmax.tot)) | HepaRG <25x Avg Cmax ATP (HepaRG spheroids; HepaRG, ATP endpoint, cut-off <25x Avg Cmax): +ve | HepaRG <100x Avg Cmaxu ATP (HepaRG spheroids; HepaRG, ATP endpoint, cut-off <100x Avg Cmaxu): -ve | HepaRG <25x Avg Cmax HCS (HepaRG spheroids; HepaRG, HCS endpoints, cut-off <25x Avg Cmax): +ve | HepaRG <100x Avg Cmaxu HCS (HepaRG spheroids; HepaRG, HCS endpoints, cut-off <100x Avg Cmaxu): +ve (<100x Avg Cmaxu) | HepaRG <25x Avg Cmax All (HepaRG spheroids; HepaRG, all endpoints (ATP and HCS), cut-off <25x Avg Cmax): +ve | HepaRG Cmax max All (HepaRG spheroids; HepaRG, all endpoints, Cmax max used): +ve | HepaRG Cmax min All (HepaRG spheroids; HepaRG, all endpoints, Cmax min used): +ve | HepaRG <100x Avg Cmaxu All (HepaRG spheroids; HepaRG, all endpoints, cut-off <100x Avg Cmaxu): +ve (<100x Avg Cmaxu) | DILI prediction HepaRG spheroids (HCS-MEC) (HepaRG spheroids; [18]): +VE (MEC < 25 × Cmax.tot cut-off) | DILI in vitro assay prediction, Schadt (2015) ([5]; BSEP & Metabolism based, ref Schadt et al. 2015): +VE | Cellular toxicity (3T3 cells) [5, 19]: +VE | Combined Assay [5, 19]: +VE | GSH adduct HML [5, 19]: -VE | Hepatocyte cellular toxicity [5, 19]: -VE | MitoTox 3T3 [5, 19]: -VE | TDI CYP3A4 [5, 19]: -VE | hBSEP inhibition [5, 19]: -VE | Human plasma Cmax,u [6]: 0.089 µM | Cluster 1-6 +VE Assay [7]: +VE | Structural based (HCI) (human hepatocytes; In vitro Assay, ref Xu 2008): +VE | DILI in vitro assay prediction, Xu (2008) (human hepatocytes; Structural based (HCI), human hepatocytes, ref Xu et al. 2008): +VE | DILI severity category (Chen et al. [2016]) ([8]; LTKB DILIrank category, ref Chen et al. 2016): Most | DILI severity category (Chen 2016) ([8]; human DILI classification, LTKB DILIrank, ref Chen et al. 2016): Most | DILI severity category ([8]; human DILI severity, ref Chen et al.): Most | DILI +VE (5-8), DILI -VE (-4) ([8]; ref Chen 2016): +VE | DILI severity category ([8]; ref Chen 2016): vMost-DILI-Concern | fu [9]: 0.020 | PHH/100xCmax, Proctor (2017) (PHH): +VE (IC50 < 100 × Cmax.tot) | hLiMTs/100xCmax, Proctor (2017) (hLiMTs [10]): +VE (IC50 < 100 × Cmax.tot) | Cmax [11]: 4.45 µM | Rule of Two hybrid HRM Score ≥3, Aleo (2019) [12]: +VE (Rule of Two hybrid HRM Score ≥3) | Rule of Two hybrid HRM Score ≥8, Aleo (2019) [12]: +VE (Rule of Two hybrid HRM Score ≥8) | Upcytes multi donor assay 14day data (Upcyte human hepatocytes): +VE | THLE-Null/3A4 [13]: +VE | DILI in vitro assay prediction, Tolosa (2012) (HepG2 cells [14]): +VE | Bayesian Machine Learning DILI prediction, Williams (2019) ([15]; Bayesian modeling, ref Williams et al. 2019): +VE | Bayesian Machine Learning ([15]; In vitro Assay, ref Williams 2019): +VE | DILI in vitro assay prediction, Persson (2013) (HepG2 cells [16]): +VE | Assigned DILI category ([17]; Chen et al. 2016 or literature alignment, ref Chen et al. 2016): 3 | In vivo DILI ([17]; […]): +VE | In vivo DILI ([17]; ref Garside 2014): +VE | In vivo DILI ([17]; ref Gustafsson 2014): +VE | In vivo DILI ([17]; ref O'Brien 2006): +VE | In vivo DILI ([17]; ref Persson 2013): +VE | In vivo DILI ([17]; ref Porceddu 2012): +VE | In vivo DILI ([17]; ref Proctor 2017): +VE | In vivo DILI ([17]; ref Schadt 2015): +VE | In vivo DILI ([17]; ref Tolosa 2012): +VE | In vivo DILI ([17]; ref Tolosa 2019): +VE | In vivo DILI ([17]; ref Vorrink 2018): +VE | In vivo DILI ([17]; ref Williams 2019): +VE | In vivo DILI ([17]; ref Xu 2008): +VE
